# In PubChem BioAssay AID1745853 (National Center for Advancing Translational Sciences (NCATS), 2022):
# This is one part of the list. These are further read-outs of the screen, such as a control signal, another cell line or another target. No call is given for them.
# What was measured:
# Assay in all cases: Primary Screen for Target Class Profiling of Small Molecule Inhibitors of Methyltransferases
# [1] = target: Glycine N-methyltransferase (Homo sapiens) (UniProt Q14749); settings: purified enzyme, MTase-Glo SAH luminescence; measured here: GNMT inhibition; at 40 µM; stronger effect = lower value
# Method in brief: (§1)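 Each enzyme was reacted with SAM and its substrate, with compounds tested once at 40 uM; SAH formed was read by MTase-Glo luminescence.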
# [2] = target: Guanidinoacetate N-methyltransferase (Homo sapiens) (UniProt Q14353); settings: purified enzyme, MTase-Glo SAH luminescence; measured here: GAMT inhibition; at 40 µM; stronger effect = lower value
# Method in brief: as §1
# [3] = target: Histamine N-methyltransferase (Homo sapiens) (UniProt P50135); settings: purified enzyme, MTase-Glo SAH luminescence; measured here: HNMT inhibition; at 40 µM; stronger effect = lower value
# Method in brief: as §1
# [4] = target: Nicotinamide N-methyltransferase (Homo sapiens) (UniProt P40261); settings: purified enzyme, MTase-Glo SAH luminescence; measured here: NNMT inhibition; at 40 µM; stronger effect = lower value
# Method in brief: as §1
# [5] = target: Phenylethanolamine N-methyltransferase (Homo sapiens) (UniProt P11086); settings: purified enzyme, MTase-Glo SAH luminescence; measured here: PNMT inhibition; at 40 µM; stronger effect = lower value
# Method in brief: as §1
# % is set by controls: 0 for no effect and ±100 for the full control effect.
SMILES,"activity change, negative = inhibition [1]","activity change, negative = inhibition [2]","activity change, negative = inhibition [3]","activity change, negative = inhibition [4]","activity change, negative = inhibition [5]"
Cc1ccc(Cn2c(=O)c3ccccc3n3c(CCC(=O)N4CCC(Cc5ccccc5)CC4)nnc23)cc1,-2.72%,5.87%,3.92%,-3.16%,-1.38%
Cc1cccc(NC(=O)c2cc3n(n2)CC(C)(C(=O)NC2CCCCC2)N(C)C3=O)c1C (stereo not drawn),0.158%,0.919%,2.68%,3.31%,0.115%
CN1CCN(c2ncnc3c2CN(C2CCCCC2)C(=O)CN3C)CC1,-1.6%,-1.16%,-1.68%,-4.45%,3.57%
O=C(Cc1ccsc1)N1CCC(n2cc(-c3nc(-c4ccccc4)no3)nn2)C1 (stereo not drawn),-5.6%,0.395%,0.49%,-13.1%,-2.35%
O=C(NCc1ccccc1Cl)c1ccc2nnc(-c3ccoc3)n2c1,-31.8%,-12.7%,-16.8%,-27%,-14.7%
CCOCCCN1C(=O)c2cc3occc3n2CC1(C)C(=O)NC1CCCCC1 (stereo not drawn),1.5%,5.85%,2.4%,8.8%,1.25%
Cc1ccc(CCNC(=O)c2cc3c(=O)[nH]c(C)cn3n2)cc1,-6.29%,-7.27%,-3.13%,-14.8%,-9.48%
C=CC(C)(CC/C=C(\C)CC/C=C(\C)CC(O)/C=C(\C)C(=O)O)O[C@@H]1O[C@H](CO)[C@@H](O)[C@H](O)[C@H]1O[C@@H]1O[C@H](CO)[C@@H](O)[C@H](O)[C@H]1O (stereo partly drawn),0%,-1.66%,0.728%,-13.4%,4.53%
O=C(CCc1nnc2n(CCc3ccccc3)c(=O)c3ccccc3n12)Nc1cccc(Cl)c1,1.96%,1.78%,8.68%,2.27%,0.044%
CCOC(=O)c1cccc(NC(=O)N2CC[C@@H](CC(=O)NCc3ccccc3OC)[C@@H](CC)C2)c1,-1.28%,-3.69%,-13.4%,-22%,5.22%
NC[C@H]1O[C@@H](n2cnc3c(N)ncnc32)[C@H](O)[C@@H]1O,-65.7%,-65.6%,-66.7%,-62.7%,-73.4%
Cn1c(CNc2cccc(C(=O)NCc3ccccc3C(F)(F)F)c2)nnc1-c1ccncc1,,-0.317%,,-13%,2.82%
C=CCC1=C[C@]2(OC)[C@H](C)[C@@H](c3ccc4c(c3)OCO4)O[C@]2(OC)CC1=O,2.29%,-1.91%,5.98%,-14.6%,-4.35%
CC1CCCCC1NC(=O)C1(C)Cn2c(cc3sccc32)C(=O)N1Cc1cccc(F)c1 (stereo not drawn),1.45%,0%,-0.579%,-3.02%,-4.09%
Cc1cn2c(-c3cn[nH]c3)cnc2c(Nc2ccc(C(=O)N3CCNCC3)cc2F)n1,36.6%,-3.4%,-24.1%,-13.2%,-7.57%
CCN1C(=O)c2cc3ccccc3n2CC1(C)C(=O)NCC(=O)NCCc1ccccc1C (stereo not drawn),-3.37%,0%,4.86%,-3.11%,-2.57%
CCOC(=O)COc1ccc2c(-c3ccccc3)cc(=O)oc2c1C,-6.03%,3.05%,2.36%,-14.2%,-20.8%
COc1ccccc1-c1noc(CCC(=O)N2CCC(Cc3noc(C)n3)CC2)n1,-1.64%,-2.14%,-2.52%,-3.62%,4.54%
COC[C@@H]1CN(Cc2ccco2)C[C@H]1C(=O)N(C)C,0.838%,0.894%,2.65%,0.745%,-4.43%

SMILES,"activity change, negative = inhibition [1]","activity change, negative = inhibition [2]","activity change, negative = inhibition [3]","activity change, negative = inhibition [4]","activity change, negative = inhibition [5]"
CCOc1ccc(CN2C(=O)c3cc4occc4n3CC2(C)C(=O)NC2CCCCCCC2)cc1 (stereo not drawn),0.111%,0%,2.09%,-4.53%,-1.7%
C=C1CCC2C(C)(C)C(O)CCC2(C)C1CCC(C)CCOC(=O)CCC(=O)O (stereo not drawn),0.075%,4.24%,8.39%,-15.9%,-3.05%
C=CC1C(O[C@@H]2O[C@H](CO)[C@@H](O)[C@H](O)[C@H]2O)OC=C(C(=O)OC)C1CC(=O)O (stereo partly drawn),2.79%,1.68%,9.7%,-7.66%,5.58%
CCOC(=O)Cc1ccc(NC(=O)N2Cc3c(sc4c3CCCC4)-n3cccc3C2c2ccc(F)cc2)cc1 (stereo not drawn),-0.099%,0%,2.83%,3.02%,9.7%
COc1c(/C=C/C(C)(C)O)ccc2c1C(=O)OCc1cc(C)cc(O)c1O2,0.374%,1.11%,9.4%,-14.8%,2.73%
C=CC(C)(C)c1[nH]c2cc3c(cc2c1CC1NC(=O)C2=CCCN2C1=O)C=CC(C)(C)O3 (stereo not drawn),-2.55%,-16.6%,3.35%,-30.1%,-12.2%
NS(=O)(=O)c1ccc(C(=O)N[C@H](c2cccs2)C2CC(O)C2)cc1 (stereo partly drawn),-2.22%,-10.2%,-0.436%,-9.41%,-4.2%
C[C@@H]1O[C@@H](O[C@@H]2[C@@H](O)[C@H](O[C@@H]3[C@@H](O)[C@@H](O)[C@H](O[C@H]4[C@H](OC(=O)[C@]56CCC(C)(C)C[C@H]5C5=CCC7[C@@]8(C)C[C@H](O)[C@H](O[C@@H]9O[C@H](C(=O)O)[C@@H](O)[C@H](O)[C@H]9O)[C@@](C)(CO)C8[C@H](O)C[C@@]7(C)[C@]5(C)C[C@H]6O)O[C@@H](CO)[C@@H]4O)O[C@H]3C)OC[C@H]2O)[C@H](O)[C@H](O)[C@H]1O (stereo partly drawn),0%,7.15%,10%,-6.7%,8.97%
CCCC1c2ccc(C)n2CCN1C(=O)Nc1cc(OC)cc(OC)c1 (stereo not drawn),-2.46%,0%,-8.15%,0.934%,-5.21%
CC(=O)N1CCOc2ccc(CCC(=O)N3CCN(C4CCCCC4)CC3)cc2C1,-3.25%,-2.47%,-3.31%,-6.04%,21.1%
CC(C)Cn1c(=O)c2ccc(C(=O)NC(C)C)cc2n2c(=O)n(Cc3ccc(N4CCCC4=O)cc3)nc12,-0.815%,1.38%,-2%,-4.78%,-1.82%
C=C(C)[C@@H]1CC[C@]2(C(=O)O)CC[C@]3(C)C(CCC4[C@]5(C)C(CC[C@]43C)C(C)(C)[C@@H](O)[C@@H]5C(=O)O)C12 (stereo partly drawn),3.32%,4.24%,11.6%,-9.22%,1.49%
C=CCNc1nc(C)nc2c1CCN(C(=O)Cc1nnc(N)s1)CC2,-5.49%,-4.66%,-3.33%,-4.4%,-0.195%
CC1CC(=O)C2=C(C1)C1OC1C1(O)C2C(=O)c2cccc(O)c2C1O (stereo not drawn),-2.26%,-1.43%,5.72%,-12.1%,0.203%
Cc1cc(S(=O)(=O)N[C@@H]2CCOC[C@H]2Oc2ccccn2)c(C)s1,-2.8%,-1.01%,-0.953%,-6.64%,3.74%
CCN1c2cc(C(=O)NCc3cccc(OC)c3)ccc2C(=O)N2CCCCCC21 (stereo not drawn),-5.64%,-6.22%,-6.51%,-10.2%,-4.16%
COC[C@H]1C[C@@H](NC(=O)Nc2cccnc2)[C@H](O)[C@@H]1O,-4.66%,-3.52%,-17.5%,-16.1%,-9.56%
Cn1c(=O)c2ccc(C(=O)NC3CCCC3)cc2n2c(SCc3ccc(F)cc3)nnc12,-10.1%,-0.914%,0.466%,-4.87%,-2.94%
O=[S+]([O-])(c1cccs1)N1CCCC2(CC(c3ccccc3)=NO2)C1 (stereo not drawn),-12.4%,-5.99%,-1.29%,-19.1%,-12%

SMILES,"activity change, negative = inhibition [1]","activity change, negative = inhibition [2]","activity change, negative = inhibition [3]","activity change, negative = inhibition [4]","activity change, negative = inhibition [5]"
Cc1ccc(OC[C@H](O)[C@H](C)NC(C)C)c2c1CCC2,-3.31%,-3.2%,0.073%,-12.3%,1.65%
Cc1ccccc1CN1C(=O)c2ccc(-c3ccccc3)n2CC1(C)C(=O)NC1CCCC1 (stereo not drawn),5.82%,0%,5.69%,5.75%,6.4%
COc1ccc(CN2C(=O)c3ccc(-c4ccccc4)n3CC2(C)C(=O)NC2CCCC2)cc1OC (stereo not drawn),-1.16%,0.128%,3.11%,-5.34%,0.763%
CCCn1c(C)c(CC(=O)NCC2COCCO2)c2c1CC(C)(C)CC2=O (stereo not drawn),-0.852%,0.518%,2.76%,0.489%,-15.1%
Cc1cccc(Cn2nc3n(Cc4ccc(F)cc4)c(=O)c4ccccc4n3c2=O)c1,0.93%,0%,3.75%,4.92%,0.859%
CC(C)=CCC/C(C)=C/Cc1ccc(O)c(C2OC(=O)c3cc(C(=O)O)cc(O)c32)c1O (stereo not drawn),-1.81%,-14.5%,5.17%,-30%,-10.9%
Cc1ccc(Cn2c(=O)c3ccccc3n3c(CCC(=O)Nc4cccc(Cl)c4)nnc23)cc1,-1.52%,1.29%,8.07%,-0.365%,0.273%
CC(C)n1nc(C#Cc2ccccc2)c2c(N)ncnc21,-7.42%,3.03%,0.398%,-29.5%,-16.8%
CC1(C(=O)NC2CCCCC2)Cn2nc(-c3cccs3)cc2C(=O)N1c1ccc(F)cc1 (stereo not drawn),3.59%,0%,7.76%,3.85%,4.95%
CCC(C)NC(=O)c1ccc2c(=O)n(C)c3nnc(SCC(=O)c4cc(C)ccc4C)n3c2c1 (stereo not drawn),6.59%,0.249%,6.97%,7.39%,4.49%
CC(C)Cn1c(=O)n(CC(C)N2CCCC2)c2cc(C(=O)O)cnc21 (stereo not drawn),-4.04%,-7.07%,-2.44%,-9.31%,-7.41%
Cc1ccc(CN2C(=O)c3cc4sccc4n3CC2(C)C(=O)NC2CCCCCCC2)cc1 (stereo not drawn),1.31%,4.65%,6.02%,-1.54%,3.14%
O=C(CCc1nnc2n(CCc3ccccc3)c(=O)c3ccccc3n12)N1CCN(c2ccccc2F)CC1,-2.48%,0.225%,2.24%,-29.9%,0.752%
CCCn1c(=O)c2ccc(C(=O)NC(C)C)cc2n2c(=O)n(Cc3cccc(Cl)c3)nc12,2.19%,0.337%,8.11%,-2.33%,4.86%
N#Cc1cc(C2=Nc3ccc(Br)cc3NC(=O)C2)ccn1,-40.7%,-3.76%,2.78%,-20.3%,-4.59%
CC(C)c1cc2n(n1)CC(C)(C(=O)NC1CCCCCC1)N(c1ccc(Cl)cc1)C2=O (stereo not drawn),-0.165%,0.015%,4.94%,2.4%,-0.615%
CC(N)=O,4.03%,-7.7%,7.6%,-10%,-3.56%
CCOc1ccc(C(=O)Cn2nc3n(C(C)C)c(=O)c4ccc(C(=O)NC(C)C)cc4n3c2=O)cc1,-1.07%,4.78%,2.6%,2.69%,2.18%
Cc1ccc(N2C(=O)c3cc(-c4cccs4)nn3CC2(C)C(=O)NC2CCCCC2)cc1C (stereo not drawn),5.62%,3.01%,9.51%,5.77%,3.99%
